Experimental data as given in paper PMC5892938.
Some of the results follow. At the low end of the ranking the order means little.

These sequences were tested against GST-SBP-SLBP (stem-loop binding protein) (UniProt Q14493) (assay: targeted RNA Bind-n-Seq). Details: RBNS binding buffer: 25 mM Tris pH 7.5, 150 mM KCl, 3 mM MgCl2, 0.1% Tween, 0.5 mg/mL BSA, 1 mM DTT; 27 nM protein, 750 pM RNA pool; temperature not stated; high values mean tight binding.
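Further: DESeq read counts versus GST-SBP nonspecific binding control pulldown.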

Row | Sequence | binding signal (log2 fold change)
1 | GGUCACGUCUCAAUCAACUCCAUAGAGGGGGGGAAAACCCCUUUGCCCUCACAAUCAACAGCUCGCAGUCAAG | 0.107
2 | GGUCACGUCUCAAUCAACUCUCAAGAGGGGGGGAAAACCCCUUUGCCCUCGUUAUCAACAGCUCGCAGUCAAG | -0.253
3 | GGUCACGUCUCAAUCAACUCAUUUUCAGGAGUUUCCUCCUGUUAUCUCAACAGCUCGCAGUCAAG | 0.0757
4 | GGUCACGUCUCAAUCAACUCUUUCUCAGGAGUUUUCUCCUGUUUACUCAACAGCUCGCAGUCAAG | 0.133
5 | GGUCACGUCUCAAUCAACUCUUCGUCCAGGGAAACCCCUGGCAUAUUCAACAGCUCGCAGUCAAG | -0.151
6 | GGUCACGUCUCAAUCAACUCACUAGAGGGGGGGAAAACCCCUUUACCCUCACUUUCAACAGCUCGCAGUCAAG | 0.242
7 | GGUCACGUCUCAAUCAACUCAAAAGAGGGGGGGAAAACCCCUUUGCCCUCGAUAUCAACAGCUCGCAGUCAAG | 0.336
8 | GGUCACGUCUCAAUCAACUCAUCGUCAGGAGUUUACUCCUGUAUAUUCAACAGCUCGCAGUCAAG | 0.0131
9 | GGUCACGUCUCAAUCAACUCUUCGCCCAGGGAAAUCCCUGGUUUAUUCAACAGCUCGCAGUCAAG | -0.0804
10 | GGUCACGUCUCAAUCAACUCUUUCCCCAGGGAAACCCCUGGCUUACUCAACAGCUCGCAGUCAAG | 0.0124
11 | GGUCACGUCUCAAUCAACUCAUUCUCAGGAGUUUGCUCCUGUUAUUUCAACAGCUCGCAGUCAAG | 0.0173
12 | GGUCACGUCUCAAUCAACUCCCUCGAGGGGGGGAAAACCCCUUUACCCUCUAAAUCAACAGCUCGCAGUCAAG | -0.235
13 | GGUCACGUCUCAAUCAACUCACAAGAGGGGGGGAAAACCCCUUUGCCCUCCAAAUCAACAGCUCGCAGUCAAG | 0.0913
14 | GGUCACGUCUCAAUCAACUCAACGCCAGGAGUUUUCUCCUGCUAUCUCAACAGCUCGCAGUCAAG | 0.202
15 | GGUCACGUCUCAAUCAACUCUUUCUCCAGGGAAACCCCUGGUAAUGUCAACAGCUCGCAGUCAAG | -0.146
16 | GGUCACGUCUCAAUCAACUCUAUCCCAGGAGUUUACUCCUGUAAAUUCAACAGCUCGCAGUCAAG | -0.000911
17 | GGUCACGUCUCAAUCAACUCAACUCCCAGGGAAAUCCCUGGCAUUUUCAACAGCUCGCAGUCAAG | 0.176
18 | GGUCACGUCUCAAUCAACUCCUUAGAGGGGGGGAAAACCCCUUUGCCCUCAGAAUCAACAGCUCGCAGUCAAG | -0.104
19 | GGUCACGUCUCAAUCAACUCAGUCCCCAGGGAAAUCCCUGGCUUUUUCAACAGCUCGCAGUCAAG | -0.0694
20 | GGUCACGUCUCAAUCAACUCUAUUCCCAGGGAAACCCCUGGCAUAUUCAACAGCUCGCAGUCAAG | 0.164
21 | GGUCACGUCUCAAUCAACUCAUUUCCAGGAGUUUUCUCCUGCAUUUUCAACAGCUCGCAGUCAAG | -0.0926
22 | GGUCACGUCUCAAUCAACUCUUCCCCCAGGGAAAACCCUGGUAUUCUCAACAGCUCGCAGUCAAG | -0.161
23 | GGUCACGUCUCAAUCAACUCUUCCCCCAGGGAAACCCCUGGUAAUGUCAACAGCUCGCAGUCAAG | 0.182
24 | GGUCACGUCUCAAUCAACUCUAAAGAGGGGGGGAAAACCCCUUUUCCCUCAAUAUCAACAGCUCGCAGUCAAG | 0.0602
25 | GGUCACGUCUCAAUCAACUCAAUCCCCAGGGAAAGCCCUGGCUUUUUCAACAGCUCGCAGUCAAG | 0.0136

Row | Sequence | binding signal (log2 fold change)
26 | GGUCACGUCUCAAUCAACUCUAUUCCAGGAGUUUACUCCUGCAUAUUCAACAGCUCGCAGUCAAG | -0.0348
27 | GGUCACGUCUCAAUCAACUCUCUCGAGGGGGGGAAAACCCCUUUGCCCUCAUUUUCAACAGCUCGCAGUCAAG | -0.166
28 | GGUCACGUCUCAAUCAACUCAUCUCCAGGAGUUUCCUCCUGUAUUUUCAACAGCUCGCAGUCAAG | -0.156
29 | GGUCACGUCUCAAUCAACUCUUUCUCCAGGGAAAACCCUGGCAUAUUCAACAGCUCGCAGUCAAG | -0.134
30 | GGUCACGUCUCAAUCAACUCUUCCUCAGGAGUUUUCUCCUGUUAACUCAACAGCUCGCAGUCAAG | 0.0915
31 | GGUCACGUCUCAAUCAACUCCCUAGAGGGGGGGAAAACCCCUUUACCCUCCAUUUCAACAGCUCGCAGUCAAG | -0.455
32 | GGUCACGUCUCAAUCAACUCUCCUGAGGGGGGGAAAACCCCUUUACCCUCUAAAUCAACAGCUCGCAGUCAAG | 0.0339
33 | GGUCACGUCUCAAUCAACUCAAUUCCAGGAGUUUUCUCCUGUUUUUUCAACAGCUCGCAGUCAAG | -0.0899
34 | GGUCACGUCUCAAUCAACUCUACUUCCAGGGAAAACCCUGGCAAUUUCAACAGCUCGCAGUCAAG | 0.201
35 | GGUCACGUCUCAAUCAACUCUAUCCCCAGGGAAAUCCCUGGUUUUUUCAACAGCUCGCAGUCAAG | -0.112
36 | GGUCACGUCUCAAUCAACUCAAUCUCCAGGGAAAUCCCUGGCUAAUUCAACAGCUCGCAGUCAAG | 0.315
37 | GGUCACGUCUCAAUCAACUCUUUUCCAGGAGUUUCCUCCUGCAUUUUCAACAGCUCGCAGUCAAG | 0.203
38 | GGUCACGUCUCAAUCAACUCUAUUCCCAGGGAAACCCCUGGCAUACUCAACAGCUCGCAGUCAAG | 0.311
39 | GGUCACGUCUCAAUCAACUCAUAAGAGGGGGGGAAAACCCCUUUACCCUCACACUCAACAGCUCGCAGUCAAG | 0.455
40 | GGUCACGUCUCAAUCAACUCCUAAGAGGGGGGGAAAACCCCUUUGCCCUCAAUAUCAACAGCUCGCAGUCAAG | -0.191
41 | GGUCACGUCUCAAUCAACUCUACUUCCAGGGAAAACCCUGGUAAUCUCAACAGCUCGCAGUCAAG | -0.0047
42 | GGUCACGUCUCAAUCAACUCUAUCUCCAGGGAAAUCCCUGGUUAUUUCAACAGCUCGCAGUCAAG | -0.149
43 | GGUCACGUCUCAAUCAACUCUAUCUCCAGGGAAAGCCCUGGCAUUUUCAACAGCUCGCAGUCAAG | 0.024
44 | GGUCACGUCUCAAUCAACUCUUUCCCCAGGGAAAGCCCUGGCUUAUUCAACAGCUCGCAGUCAAG | -0.0818
45 | GGUCACGUCUCAAUCAACUCUUUCGCAGGAGUUUACUCCUGGUAAUUCAACAGCUCGCAGUCAAG | -0.0209
46 | GGUCACGUCUCAAUCAACUCUAGGUCAGGAGUUUUCUCCUGUAAUUUCAACAGCUCGCAGUCAAG | 0.0515
47 | GGUCACGUCUCAAUCAACUCAUCGUCAGGAGUUUGCUCCUGCUUUUUCAACAGCUCGCAGUCAAG | 0.176
48 | GGUCACGUCUCAAUCAACUCAGUUCCAGGAGUUUACUCCUGUAUAUUCAACAGCUCGCAGUCAAG | -0.0101
49 | GGUCACGUCUCAAUCAACUCCCUCGAGGGGGGGAAAACCCCUUUACCCUCUUUAUCAACAGCUCGCAGUCAAG | -0.123
50 | GGUCACGUCUCAAUCAACUCCACGGAGGGGGGGAAAACCCCUUUACCCUCAAAAUCAACAGCUCGCAGUCAAG | -0.47

Row | Sequence | binding signal (log2 fold change)
51 | GGUCACGUCUCAAUCAACUCAUCGCCCAGGGAAACCCCUGGUUAUUUCAACAGCUCGCAGUCAAG | -0.191
52 | GGUCACGUCUCAAUCAACUCUUUCCCCAGGGAAACCCCUGGUAGUCUCAACAGCUCGCAGUCAAG | -0.102
53 | GGUCACGUCUCAAUCAACUCCAUAGAGGGGGGGAAAACCCCUUUACCCUCAUCAUCAACAGCUCGCAGUCAAG | -0.617
54 | GGUCACGUCUCAAUCAACUCAUCCUCAGGAGUUUGCUCCUGCUUAUUCAACAGCUCGCAGUCAAG | 0.0541
55 | GGUCACGUCUCAAUCAACUCCCUAGAGGGGGGGAAAACCCCUUUACCCUCCAUAUCAACAGCUCGCAGUCAAG | 0.133
56 | GGUCACGUCUCAAUCAACUCAUUUUCCAGGGAAAUCCCUGGUUUUUUCAACAGCUCGCAGUCAAG | -0.249
57 | GGUCACGUCUCAAUCAACUCAUCUCCAGGAGUUUUCUCCUGUAAAGUCAACAGCUCGCAGUCAAG | -0.109
58 | GGUCACGUCUCAAUCAACUCUACUUCCAGGGAAAACCCUGGCUAUCUCAACAGCUCGCAGUCAAG | 0.22
59 | GGUCACGUCUCAAUCAACUCUAAAGAGGGGGGGAAAACCCCUUUACCCUCAUUUUCAACAGCUCGCAGUCAAG | -0.0582
60 | GGUCACGUCUCAAUCAACUCAUCUUCAGGAGUUUCCUCCUGUUAUCUCAACAGCUCGCAGUCAAG | 0.0709
61 | GGUCACGUCUCAAUCAACUCUUCUUCAGGAGUUUGCUCCUGCAUAUUCAACAGCUCGCAGUCAAG | -0.115
62 | GGUCACGUCUCAAUCAACUCAUUCUCAGGAGUUUCCUCCUGUUAUCUCAACAGCUCGCAGUCAAG | 0.0299
63 | GGUCACGUCUCAAUCAACUCCCAAGAGGGGGGGAAAACCCCUUUACCCUCAUUAUCAACAGCUCGCAGUCAAG | -0.146
64 | GGUCACGUCUCAAUCAACUCUUUCUCCAGGGAAAGCCCUGGCUAACUCAACAGCUCGCAGUCAAG | 0.0826
65 | GGUCACGUCUCAAUCAACUCACAAGAGGGGGGGAAAACCCCUUUACCCUCACUCUCAACAGCUCGCAGUCAAG | 0.304
66 | GGUCACGUCUCAAUCAACUCUUCUCCCAGGGAAAACCCUGGCAUAUUCAACAGCUCGCAGUCAAG | 0.0621
67 | GGUCACGUCUCAAUCAACUCAUCUCCAGGAGUUUUCUCCUGCAAAGUCAACAGCUCGCAGUCAAG | 0.156
68 | GGUCACGUCUCAAUCAACUCAAUCUCCAGGGAAACCCCUGGCAAAGUCAACAGCUCGCAGUCAAG | 0.012
69 | GGUCACGUCUCAAUCAACUCAUCCUCCAGGGAAAGCCCUGGUAAUCUCAACAGCUCGCAGUCAAG | -0.27
70 | GGUCACGUCUCAAUCAACUCUUUUUCCAGGGAAAGCCCUGGCAAUCUCAACAGCUCGCAGUCAAG | -0.0501
71 | GGUCACGUCUCAAUCAACUCAUCUCCCAGGGAAACCCCUGGUUAUCUCAACAGCUCGCAGUCAAG | 0.231
72 | GGUCACGUCUCAAUCAACUCUACAGAGGGGGGGAAAACCCCUUUACCCUCCUAAUCAACAGCUCGCAGUCAAG | -0.101
73 | GGUCACGUCUCAAUCAACUCUAUCUCCAGGGAAAACCCUGGCUAUUUCAACAGCUCGCAGUCAAG | 0.433
74 | GGUCACGUCUCAAUCAACUCAAUCUCCAGGGAAAUCCCUGGUAUAUUCAACAGCUCGCAGUCAAG | 0.0858
